Structures are written as SMILES. About 220 (0.56%) of roughly 39,000 compounds showed activity. This is one part of the list.
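Further: static incubation at 37 °C against the wild-type strain, values averaged over two biological replicates.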

In this experiment the test system is Escherichia coli K-12 BW25113. Nature of the experiment: relative growth (OD600 normalised to plate interquartile mean) (fraction); higher = less growth inhibition, active = 0.2 or less. The note with it: 50 µM; LB; incubation time: overnight (16-24 h).
`CC(C)[C@@H](CO)N1C(=O)[C@@H]2[C@H]3C(=O)OCCC/C=C\[C@H]3O[C@]23C=CCN(CCN2CCOCC2)C(=O)[C@@H]13`: the relative growth was inactive: 0.99.

For `O=c1nc[nH]c2c1ncn2[C@H]1CC[C@@H](CO)O1`, the relative growth was inactive: 0.488. For the compound `CCS(=O)(=O)N1CCNCC1`, the relative growth was inactive: 1.01.

With `C[C@@H]1CN([C@@H](C)CO)C(=O)c2cccc(NC(=O)c3cnccn3)c2O[C@H]1CN(C)S(=O)(=O)c1cn(C)cn1`, the relative growth was inactive: 1.01. For the compound `CCC1(c2ccccc2)C(=O)NCNC1=O`, the relative growth is inactive: 0.896. As to `CN1CCN(C(=O)C[C@@H]2CC[C@H]3[C@@H](COC[C@H](O)CN3Cc3ccc4c(c3)OCO4)O2)CC1`, the relative growth was inactive: 0.973. Under `CCC(=O)N(C)C[C@@H]1Oc2ncc(C#C[C@@H](C)O)cc2C(=O)N([C@@H](C)CO)C[C@H]1C` stands inactive: 1.01. Turning to `C[C@@H]1CN([C@@H](C)CO)C(=O)c2cc(NS(=O)(=O)c3ccc(F)cc3)ccc2O[C@@H](C)CCCCO[C@@H]1CN(C)S(=O)(=O)c1cn(C)cn1`, the relative growth is inactive: 1.02. In the case of `CC(C)NC(=O)Nc1ccc2c(c1)CC(=O)N([C@@H](C)CO)C[C@H](C)[C@H](CN(C)S(=O)(=O)c1ccccc1)O2`, the relative growth is inactive: 1.

For `CO[C@@H]1CN(C)C(=O)c2cc(NS(=O)(=O)c3ccccc3)ccc2OC[C@@H](C)N(C(=O)NC(C)C)C[C@@H]1C`, the relative growth is inactive: 0.999.

As for `O=C(NCCCc1nn[nH]n1)c1[nH]nc2c1CCC2`, the relative growth was inactive: 0.989.

Regarding `C[C@H](O)CC(=O)O`, the relative growth is inactive: 0.713. Take `Cc1cc(C(=O)Nc2cccc3c2O[C@H](CN(C)S(C)(=O)=O)[C@H](C)CN([C@H](C)CO)C3=O)n(C)n1`: the relative growth is inactive: 0.995.

Regarding `NCc1ccccc1F`, the relative growth is inactive: 1. For the compound `CC(=O)N[C@H]1CSSC[C@@H](C(N)=O)NC(=O)[C@H](C(C)C)NC(=O)[C@H](C)NC(=O)[C@H](Cc2cnc[nH]2)NC1=O`, the relative growth is inactive: 1. As to `Cc1noc(C)c1NC(=O)N(C)C[C@@H]1Oc2ccc(NS(=O)(=O)c3ccccc3)cc2C(=O)N([C@H](C)CO)C[C@@H]1C`, the relative growth was inactive: 1.03.

Turning to `CN1C[C@@H](CN)CC1=O`, the relative growth is inactive: 1.01. Regarding `C[C@@H]1CN([C@H](C)CO)S(=O)(=O)c2ccc(C#CC(C)(C)O)cc2O[C@@H]1CN(C)C(=O)CN(C)C`, the relative growth is inactive: 0.992. Next, `Cc1ccc(S(=O)(=O)Nc2ccc3c(c2)CC(=O)N([C@@H](C)CO)C[C@@H](C)[C@H](CN(C)Cc2ccc(C(F)(F)F)cc2)O3)cc1`: inactive: 0.952; `CC(=O)OCCc1nc(C(=O)NCc2ccc3c(c2)OCO3)cc2c1[C@@H](CCO)N([S@](=O)C(C)(C)C)C2`: inactive: 0.978.

(Values after the supplement of paper PMC9446081.)
